Source: the supplement of paper PMC10126150
Sequences with one replicate were seen in a single cluster, so their values are uncertain.

Test system: ATP
Assay: switch fluorescence ratio, 500 uM ATP over buffer (Cy3 cluster intensity, sum of 5 cycles each) (fold (ratio)); higher = stronger signal-on switching upon ATP binding; sequences stand for … in TCGTCGGCAGCGTCAGATGTGTATAAGAGACAGTTTTTTTTTTTTTTTTTTTTTTTTT…TC
Details: aptamer strand: ATP DNA aptamer (quencher-CACCTGGGGGAGTATTGCGGAGGAAGG + anchor), 100 nM annealed; ATP concentration: 500 uM; one replicate
Outline: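 Switching-strand clusters labelled with Cy3 on a modified Illumina MiSeq flow-cell were annealed to 100 nM quencher-labelled ATP aptamer, imaged in selection buffer, and re-imaged after 15 min with 500 uM ATP at 22 °C. This was done over five cycles with NaOH stripping and re-annealing in between. The fluorescence ratio is summed target-cycle over summed buffer-cycle Cy3 intensity per cluster, averaged per switch-domain sequence, excluding clusters outside 100-1000 RFU.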
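Note: ATP exposure 15 min at 22 °C before imaging.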

Row | Sequence | switch fluorescence ratio
1 | GTTCGAACGT | 1.02
2 | GGCCGAACT | 1.14
3 | ATCGGTGCCT | 1
4 | TCCGCTCTTT | 1.15
5 | GAAATTGCC | 0.954
6 | CTTGGACCAG | 1.04
7 | AGTCTCGGGA | 0.936
8 | CGTTGATGGA | 0.983
9 | ATGATAGAT | 0.999
10 | GGTCGGTCTG | 1.05
11 | TTATCAGATT | 1.02
12 | CTGCTGATAG | 1.11
13 | GCCCCGGCTT | 1.03
14 | ATAGAGTTGG | 0.973
15 | ATGCTGAGGG | 1.03
16 | GATGGGCCGT | 1.07
17 | CGGCGAGCAA | 2.24
18 | AGAATGGGGT | 1
19 | CATGACTGGG | 1.07
20 | TGTATCCCCT | 1.04
21 | AGTATAGTGT | 0.982
22 | GAATGGCCGC | 1.01
23 | TCATCAGGGA | 1.02

Row | Sequence | switch fluorescence ratio
24 | GGCCAACGTT | 1.01
25 | AAGTGATTGC | 1.01
26 | CAGGATTACT | 0.997
27 | CTCAATGCTA | 1.15
28 | TCACATTGAA | 0.963
29 | GAGATGGAAA | 0.979
30 | TAATGGCCGC | 0.973
31 | GGGACAGGTC | 0.982
32 | ATGCATGGTC | 1.04
33 | GAAGCTATGA | 1.2
34 | GATACCCAAG | 1.08
35 | CGCATATTCA | 1.45
36 | ACTAACATG | 1.12
37 | GGGCACAAGA | 0.999
38 | AGTGTTGAGT | 0.976
39 | CTTATCCATT | 1.03
40 | TACGAATTCC | 1.11
41 | GGTGTAGACC | 0.99
42 | TATCACACA | 1.07
43 | TCGTATTGAT | 0.967
44 | CATCACTTAA | 1.04
45 | AGAAGAACGC | 1.06
46 | TGGAGGAGAA | 1.01

Row | Sequence | switch fluorescence ratio
47 | TCGTGTATAC | 2.05
48 | AAACCGTCCA | 1.46
49 | AGCCACCCGG | 1.05
50 | ACACATCCTC | 1.13
51 | AGAGACCGTG | 1.05
52 | CAAAAACGGC | 0.988
53 | TAGGCAGCTT | 1.08
54 | ATAACGAGAT | 1.04
55 | TTGTTCTAGA | 0.974
56 | GGGTGTATTC | 1.01
57 | TCCCGTTGTT | 0.976
58 | AGACGAAGAG | 1.07
59 | GGGTTGCCAT | 0.977
60 | TCAGGCAATA | 4.01
61 | CACTATATCT | 1.12
62 | AATGACATTT | 1.01
63 | CCCCGGCGCA | 2.08
64 | AAAACATAGG | 1.05
65 | ACATTTGA | 1.01
66 | GATTGGGCG | 0.987
67 | AAGGAACGCG | 1.02
68 | CCGGGGCGAG | 1.11
69 | GCTGGTGTTA | 1.04

Row | Sequence | switch fluorescence ratio
70 | ATGATATGG | 0.999
71 | ACGGCACTGC | 1.12
72 | TTTAATTTCC | 1.02
73 | AGCGGGCCGC | 1
74 | CGGGACTCT | 1.01
75 | GCTCTTTAAA | 1
76 | GTTCGAGAAT | 0.989
77 | ACCACGTACG | 1.68
78 | AGTTGACAA | 0.992
79 | AACAGCGTTG | 0.997
80 | GGTATCGTTT | 0.98
81 | GCTTTTAACA | 0.982
82 | GGGGGTAACG | 1.14
83 | GGTCGGGGCT | 0.973
84 | ATAGAGAAGT | 0.992
85 | TGCTTTACTC | 1.64
86 | CCTGAATGAG | 0.973
87 | GAACTTCGTT | 0.997
88 | CATTCGACTT | 1.07
89 | TTGGAGTGAC | 0.996
90 | CCGGGGCGGG | 1.16
91 | AGTCCACGG | 1.07
92 | CCAAAAACAC | 1.09

Row | Sequence | switch fluorescence ratio
93 | GTTTTATGTG | 0.989
94 | GAGAGTATCA | 1.02
95 | GGGAAATCAC | 1.21
96 | CCATACTGCG | 1.07
97 | ATTATGCTT | 0.984
98 | GTAGTAAGGG | 1.02
99 | GACGAGGGGA | 1.18
100 | TTGTTTAGAT | 1.01
101 | GGCCTATGAC | 1.03
102 | GTTGGAAATT | 0.997
103 | TGAGATGTCA | 0.972
104 | GTCGGTAGGC | 0.992
105 | TTCTCACGTT | 1.04
106 | CAATGCAGTA | 1.1
107 | ATTTCATAGG | 1.03
108 | GCCTTATCTG | 1.03
109 | GTGAGGTGAG | 1
110 | AAATGTGAAA | 0.984
111 | GAAACGCGC | 1.06
112 | ATCTCAATCG | 1.02
113 | GGCATCTGTT | 0.988
114 | TGTAGATGG | 0.979
115 | CATACCCCAT | 1.04

Row | Sequence | switch fluorescence ratio
116 | ATCTGTGTAT | 0.999
117 | ATCTTGATAT | 0.972
118 | TTCATGGAAG | 1.02
119 | ACAGCGGCGG | 0.971
120 | AGGAAGCCGT | 0.959
121 | GGGATCGTCA | 1.01
122 | ACGATGGGAA | 0.97
123 | CCGGAAGGAT | 1.01
124 | CCACAGACTA | 1.19
125 | TTTATCAAGC | 1
126 | GCGTCATCCA | 0.981
127 | AAAACAGTTA | 0.969
128 | TGTATTAACT | 1.02
129 | CGGAGGGTAG | 1.01
130 | TTCATTTAA | 1.07
131 | GCCCCCGATT | 0.996
132 | TCCAACAGCT | 1.16
133 | ATATGGCCAT | 0.982
134 | AACGAATAGA | 1.01
135 | TGTTACTGTT | 0.983
136 | TTAATAAGCA | 1.03
137 | TATCGCCCTG | 1.05
138 | GGGGTTTACC | 0.999

Row | Sequence | switch fluorescence ratio
139 | ACACGGCATC | 1.18
140 | CCACCCTGTG | 1.25
141 | AGGTTGCCAA | 0.984
142 | GGGTACTAAT | 0.966
143 | GGTAATATAT | 1.01
144 | AAACCTGTGA | 1.13
145 | CTTTTTTC | 1.02
146 | CCAGCACCTG | 1.04
147 | CCAGGCCTTT | 0.998
148 | GATCCGCGGT | 1.22
149 | TGTTTACAAA | 1.01
150 | TTTGAAGATT | 1
151 | TTGTGCTCCG | 0.971
152 | CGTAAATCCC | 1.06
153 | TAAGTTTCCA | 0.937
154 | TGCCTTTAGG | 0.975
155 | TACGTACCAC | 1.67
156 | GCTCTTTTTA | 1.01
157 | TAAGGTCAA | 1.01
